# “And” between values parts separate entries of the source, which are not always exact repeats. Identical values can stand only once. The shares of active, inactive and inconclusive entries below differ from those in the screen. For some of these results: Potencies beside an inconclusive call are fits to weak or partial responses and may not hold up. The source made the active and inactive calls. The call rests on the fitted dose curve; in most records, active means well fitted curve in the direction sought with a large enough effect; inconclusive means small, poorly fitted or top-dose-only effect, or another doubt; inactive means no such curve, though single readings can be large; an effect the other way counts as inactive or inconclusive.
# Columns and labels:
# [1] = qHTS of pediatric cancer cell lines to identify multiple opportunities for drug repurposing: Primary screen for A673 cells (AID 1347092); details: A673 Ewing sarcoma viability, CellTiter-Glo ATP luminescence, 48 h; activity change, negative = cytotoxic: at 46 µM (top of the series); further: nearly all actives have a fitted effect of over 45% in size; further: potency means the concentration at half of the fitted maximal effect
# How it was run: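 Cells are plated, rested 5 h, dosed by pintool, incubated 48 h, then lysed with CellTiter-Glo and read by luminescence. DMSO is the neutral control; bortezomib at 2.3 uM final is the positive control.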
# [2] = qHTS of pediatric cancer cell lines to identify multiple opportunities for drug repurposing: Primary screen for NB-EBc1 cells (AID 1347095); further: potency means the concentration at half of the fitted maximal effect
# How it was run: (§1)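 Cells seeded at 500-1,000 cells/well in growth media, rested 5 hours at 37 degrees C, 5% CO2, then dosed; MIPE compounds at 11-point (from 0.78 nM) and NPC at 8-point (from 0.59 nM) final concentrations. Viability by CellTiter-Glo luminescence after 48 hours.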
# [3] = qHTS of pediatric cancer cell lines to identify multiple opportunities for drug repurposing: Primary screen for SK-N-SH cells (AID 1347098); further: nearly all actives have a fitted effect of over 65% in size; further: potency means the concentration at half of the fitted maximal effect;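 on activity change, negative = cytotoxic: DMSO served as neutral control and bortezomib at 2.3 µM as positive control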
# How it was run: (§2)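 Cells (500-1,000/well) rested 5 h, then received compounds for 48 h; metabolically active cells were measured by CellTiter-Glo luminescence. Final concentrations spanned up to 46 µM (MIPE, 11-point) or 0.59 nM-46 µM (NPC, 8-point) in primary screens, 11-point in follow-ups.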
# [4] = qHTS of pediatric cancer cell lines to identify multiple opportunities for drug repurposing: Primary screen for NB1643 cells (AID 1347099); further: potency means the concentration at half of the fitted maximal effect; nearly all actives have a fitted effect of over 50% in size
# How it was run: as §1
# [5] = qHTS of pediatric cancer cell lines to identify multiple opportunities for drug repurposing: Primary screen for LAN-5 cells (AID 1347100); details: LAN-5 neuroblastoma viability, CellTiter-Glo luminescence, 48 h; activity change, negative = cytotoxic: at 46 µM (top of the series); further: potency means the concentration at half of the fitted maximal effect
# How it was run: as §2
# [6] = qHTS of pediatric cancer cell lines to identify multiple opportunities for drug repurposing: Primary screen for Rh18 cells (AID 1347102); further: potency means the concentration at half of the fitted maximal effect; nearly all actives have a fitted effect of over 65% in size
# How it was run: as §2
# [7] = qHTS of pediatric cancer cell lines to identify multiple opportunities for drug repurposing: Primary screen for OHS-50 cells (AID 1347103); further: potency means the concentration at half of the fitted maximal effect; nearly all actives have a fitted effect of over 40% in size
# How it was run: as §2
# [8] = qHTS of pediatric cancer cell lines to identify multiple opportunities for drug repurposing: Primary screen for RD cells (AID 1347104); further: potency means the concentration at half of the fitted maximal effect; nearly all actives have a fitted effect of over 55% in size
# How it was run: as §1
# [9] = qHTS of pediatric cancer cell lines to identify multiple opportunities for drug repurposing: Primary screen for Rh30 cells (AID 1347107); further: nearly all actives have a fitted effect of over 75% in size; further: potency means the concentration at half of the fitted maximal effect
# How it was run: as §2
# [10] = qHTS of pediatric cancer cell lines to identify multiple opportunities for drug repurposing: Primary screen for SK-N-MC cells (AID 1347093); details: SK-N-MC viability, CellTiter-Glo luminescence, 48 h; activity change, negative = cytotoxic: at 46 µM (top of the series)
# How it was run: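 Metabolically active cells were quantified by ATP-dependent luminescence (CellTiter-Glo, 15 min at room temperature) following 48 h treatment. Cells had been plated at 500-1,000 per well and settled for 5 h beforehand.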
# [11] = qHTS of pediatric cancer cell lines to identify multiple opportunities for drug repurposing: Primary screen for Rh41 cells (AID 1347108); further: nearly all actives have a fitted effect of over 70% in size; further: potency means the concentration at half of the fitted maximal effect;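 on activity change, negative = cytotoxic: luminescence drop marks cytotoxic hits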
# How it was run: as §1
# [12] = qHTS of pediatric cancer cell lines to identify multiple opportunities for drug repurposing: Primary screen for U-2 OS cells (AID 1347096); further: potency means the concentration at half of the fitted maximal effect; nearly all actives have a fitted effect of over 50% in size
# How it was run: as §2
# [13] = qHTS of pediatric cancer cell lines to identify multiple opportunities for drug repurposing: Primary screen for MG 63 (6-TG R) cells (AID 1347105); details: MG 63 (6-TG R) viability, CellTiter-Glo, 48 h; activity change, negative = cytotoxic: at 46 µM (top of the series); further: nearly all actives have a fitted effect of over 50% in size; further: potency means the concentration at half of the fitted maximal effect
# How it was run: as §1
# [14] = qHTS of pediatric cancer cell lines to identify multiple opportunities for drug repurposing: Primary screen for Saos-2 cells (AID 1347097); further: nearly all actives have a fitted effect of over 40% in size; further: potency means the concentration at half of the fitted maximal effect
# How it was run: as §1
# [15] = qHTS of pediatric cancer cell lines to identify multiple opportunities for drug repurposing: Confirmatory screen for NB1643 cells (AID 1347109); details: NB1643 neuroblastoma cell viability; activity change, negative = cytotoxic: at 45.9 µM (top of the series); further: potency means the concentration at half of the fitted maximal effect; nearly all actives have a fitted effect of over 45% in size
# How it was run: as §2
# [16] = qHTS of pediatric cancer cell lines to identify multiple opportunities for drug repurposing: Primary screen for control Hh wild type fibroblast cells (AID 1347106); further: potency means the concentration at half of the fitted maximal effect; nearly all actives have a fitted effect of over 55% in size
# How it was run: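 Cells (500-1,000/well) in growth media were settled 5 h at 37 degrees C, then given compounds for 48 h. Viability was read as CellTiter-Glo luminescence. Primary runs used MIPE at 11 points (0.78 nM-46 µM) and NPC at 8 points (0.59 nM-46 µM); follow-ups used 11 points.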
# [17] = qHTS of pediatric cancer cell lines to identify multiple opportunities for drug repurposing: Primary screen for BT-37 cells (AID 1347094); further: potency means the concentration at half of the fitted maximal effect
# How it was run: as §1
# [18] = qHTS of pediatric cancer cell lines to identify multiple opportunities for drug repurposing: Primary screen for BT-12 cells (AID 1347101); further: potency means the concentration at half of the fitted maximal effect; nearly all actives have a fitted effect of over 25% in size
# How it was run: as §2
# Tags describe the fitted curve by direction and shape.
compound,measurement,setting,value
CN1CCN2c3ccccc3Cc3ccccc3C2C1 (centres undefined),Potency,[1],"inconclusive: 23.5 µM [cytotoxic, single point]"
same,Potency,[2],"inconclusive: 18.8 µM [cytotoxic, single point]"
same,Potency,[3],"inconclusive: 8.64 µM [cytotoxic, partial curve]"
same,Potency,[4],"inconclusive: 13.2 µM [cytotoxic, partial curve]"
same,Potency,[5],"inconclusive: 26.4 µM [cytotoxic, partial curve, poor fit] and inconclusive: 21.1 µM [cytotoxic, single point]"
same,Potency,[6],"inconclusive: 20.9 µM [cytotoxic, single point]"
same,Potency,[7],"inconclusive: 21.7 µM [cytotoxic, partial curve] and inconclusive: 24.6 µM [cytotoxic, partial curve]"
same,Potency,[8],"inconclusive: 37.2 µM [cytotoxic, single point]"
same,Potency,[9],"inconclusive: 7.43 µM [cytotoxic, partial curve, poor fit]"
Clc1ccc2c(N3CCN(CCCN4CCN(c5ccnc6cc(Cl)ccc56)CC4)CC3)ccnc2c1,Potency,[10],inactive
O=C(O)c1cccnc1,Potency,[1],"inconclusive: 18.7 µM [cytotoxic, partial curve]"
same,Potency,[3],inactive
same,Potency,[4],"inconclusive: 18.7 µM [cytotoxic, partial curve, poor fit]"
same,Potency,[7],"inconclusive: 19.3 µM [cytotoxic, partial curve]"
same,Potency,[11],inactive
CC(C)[C@H](CO)Nc1nc(Nc2cccc(Cl)c2)c2ncn(C(C)C)c2n1,Potency,[1],active: 14.8 µM
same,Potency,[12],"inconclusive: 37.2 µM [cytotoxic, single point]"
same,Potency,[3],active: 21.5 µM
same,Potency,[6],"inconclusive: 20.9 µM [cytotoxic, single point]"
same,Potency,[7],active: 13.7 µM
same,Potency,[8],active: 18.7 µM
same,Potency,[13],active: 2.96 µM
same,Potency,[9],"inconclusive: 5.26 µM [cytotoxic, full curve]"
O=S(=O)(O)CCS,Potency,[1],"inconclusive: 5.9 µM [cytotoxic, partial curve]"
same,Potency,[14],inactive
same,Potency,[7],"inconclusive: 2.17 µM [cytotoxic, partial curve, poor fit]"
same,Potency,[8],"inconclusive: 6.62 µM [cytotoxic, partial curve, poor fit]"
same,Potency,[13],inactive
same,Potency,[9],inactive
same,Potency,[15],"inconclusive: 3.29 µM [cytotoxic, full curve, poor fit]"
CC(C=CC(=O)NO)=C[C@@H](C)C(=O)c1ccc(N(C)C)cc1,Potency,[1],active: 0.59 µM
same,Potency,[12],active: 1.48 µM
same,Potency,[14],active: 0.935 µM
same,Potency,[3],active: 2.71 µM
same,Potency,[5],active: 0.59 µM
same,Potency,[8],active: 1.32 µM
same,Potency,[13],active: 2.35 µM
same,Potency,[16],active: 10.5 µM
same,Potency,[15],active: 0.585 µM
CN[C@@H]1CN(c2ccc3c(=O)c(C(=O)O)cn(-c4nccs4)c3n2)C[C@@H]1OC,Potency,[1],active: 8.12 µM
same,Potency,[17],active: 3.35 µM
same,Potency,[2],active: 0.407 µM
same,Potency,[5],active: 1.02 µM
same,Potency,[6],"inconclusive: 7.24 µM [cytotoxic, partial curve]"
same,Potency,[13],"inconclusive: 12.9 µM [cytotoxic, single point]"
same,Potency,[9],"inconclusive: 3.23 µM [cytotoxic, partial curve]"
same,Potency,[11],"inconclusive: 12.9 µM [cytotoxic, partial curve]"
COc1cccc(Nc2c(C(N)=O)cnc3c(C)cc(S(=O)(=O)c4cccc(C(=O)N(C)C)c4)cc23)c1,Potency,[1],inactive
same,Potency,[3],"inconclusive: 14.8 µM [cytotoxic, partial curve]"
same,Potency,[4],"inconclusive: 8.12 µM [cytotoxic, partial curve]"
same,Potency,[18],"inconclusive: 16.8 µM [cytotoxic, single point]"
same,Potency,[7],active: 10.6 µM
same,Potency,[11],inactive
O=c1c(O)c(-c2ccc(O)cc2O)oc2cc(O)cc(O)c12,Potency,[1],inactive
same,Potency,[14],"inconclusive: 14.8 µM [cytotoxic, partial curve]"
same,Potency,[11],"inconclusive: 9.35 µM [cytotoxic, partial curve]"
Cn1c(CNc2ccc(C(=N)N)cc2)nc2cc(C(=O)N(CCC(=O)O)c3ccccn3)ccc21,Potency,[1],"inconclusive: 16.2 µM [cytotoxic, single point]"
same,Potency,[3],"inconclusive: 16.7 µM [cytotoxic, single point]"
same,Potency,[4],"inconclusive: 12.9 µM [cytotoxic, single point]"
CC(=O)OCCN1C(=O)c2c(C)nc3ccc(S(=O)(=O)N4CCOCC4)cc3c2C1=O,Potency,[1],active: 7.43 µM
same,Potency,[17],active: 5.44 µM
same,Potency,[5],"inconclusive: 10.5 µM [cytotoxic, full curve]"
same,Potency,[8],"inconclusive: 26.4 µM [cytotoxic, partial curve]"
same,Potency,[11],inactive
